Screen size: about 310,000 compounds; about 2,200 (0.71%) showed an effect of 50% or more. The effect is printed as a negative number. Some of the results follow.

Experimental findings from publication PMC4336329 (PLoS ONE, 2015) are described below.

human ether-à-go-go-related gene (hERG) potassium channel, sequence (Q12809 whole entry, looked up): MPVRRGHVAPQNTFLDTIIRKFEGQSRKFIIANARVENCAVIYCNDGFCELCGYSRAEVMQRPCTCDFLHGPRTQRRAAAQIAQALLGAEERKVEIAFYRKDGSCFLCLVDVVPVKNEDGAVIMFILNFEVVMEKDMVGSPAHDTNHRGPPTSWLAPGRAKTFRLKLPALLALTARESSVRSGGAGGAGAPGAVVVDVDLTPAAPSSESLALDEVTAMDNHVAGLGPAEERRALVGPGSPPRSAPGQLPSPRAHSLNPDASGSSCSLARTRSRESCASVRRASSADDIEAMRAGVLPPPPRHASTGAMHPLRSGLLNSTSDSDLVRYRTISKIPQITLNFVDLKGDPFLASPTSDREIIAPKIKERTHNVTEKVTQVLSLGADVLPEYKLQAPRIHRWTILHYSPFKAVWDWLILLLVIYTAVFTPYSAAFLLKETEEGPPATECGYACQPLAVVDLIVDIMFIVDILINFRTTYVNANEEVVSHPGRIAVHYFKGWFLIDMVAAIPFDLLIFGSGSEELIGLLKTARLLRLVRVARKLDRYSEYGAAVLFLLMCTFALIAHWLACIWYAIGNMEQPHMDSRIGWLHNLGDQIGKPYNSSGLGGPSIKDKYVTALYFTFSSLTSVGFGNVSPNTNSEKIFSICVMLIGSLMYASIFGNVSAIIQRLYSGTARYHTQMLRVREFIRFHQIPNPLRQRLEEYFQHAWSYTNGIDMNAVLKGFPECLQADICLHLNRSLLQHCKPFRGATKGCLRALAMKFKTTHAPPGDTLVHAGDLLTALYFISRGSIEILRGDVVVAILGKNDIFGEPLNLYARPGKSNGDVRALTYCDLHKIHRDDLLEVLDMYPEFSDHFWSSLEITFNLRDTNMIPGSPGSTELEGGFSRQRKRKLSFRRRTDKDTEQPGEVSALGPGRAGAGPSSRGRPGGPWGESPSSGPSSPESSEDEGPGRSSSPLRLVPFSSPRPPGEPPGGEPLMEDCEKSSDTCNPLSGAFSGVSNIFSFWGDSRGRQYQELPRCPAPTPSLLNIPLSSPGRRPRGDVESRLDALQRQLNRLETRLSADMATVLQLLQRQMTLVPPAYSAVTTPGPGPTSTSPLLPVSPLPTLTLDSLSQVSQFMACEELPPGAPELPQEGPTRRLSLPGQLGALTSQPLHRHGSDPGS

This experiment has as its target human ether-à-go-go-related gene (hERG) potassium channel (human, UniProt Q12809). The experiment is described as follows: primary screen, population patch clamp on CHO cells stably expressing hERG.
With `CC1CN(C(=O)Nc2ccc3c(c2)OCCO3)CC(C)O1` (centres unmarked), the “hERG current change (%, negative = inhibition) at 1uM” value came to 14%.

As to `O=S(=O)(Nc1ccc(-c2cn3c(n2)SCC3)cc1)c1ccccc1F`, the “hERG current change (%, negative = inhibition) at 1uM” value came out at 4.05%.

Regarding `Cn1cc(CNCc2ccccc2OCC(O)CN2CCc3ccccc3C2)cn1` (centres unmarked), the “hERG current change (%, negative = inhibition) at 1uM” value came to 7.11%.

Take `Cc1ccc2c(=O)[nH]c(Cc3ccccc3C(=O)O)nc2c1`: the “hERG current change (%, negative = inhibition) at 1uM” value is listed as 16%.

For the molecule `Br.O=C(O)c1ccccc1CSC1=NCCS1`, the “hERG current change (%, negative = inhibition) at 1uM” value amounted to 1.13%.

Consider `COc1ccc(N(CC(=O)NCc2ccc3c(c2)OCO3)S(C)(=O)=O)cc1OC`, for which the “hERG current change (%, negative = inhibition) at 1uM” value worked out at 5.76%.

Take `CCC(=O)Nc1ccc(-c2nn3c(C)nnc3s2)cc1C`: the “hERG current change (%, negative = inhibition) at 1uM” value is -1.19%.

As to `Cc1ccc(/C=N/NC(=O)C(C)Oc2cccc3ccccc23)o1` (centres unmarked), the “hERG current change (%, negative = inhibition) at 1uM” value is on record as 6.79%.

For the molecule `CCN(Cc1nc(-c2cccc(C)c2)no1)C(=O)c1ccc2c(c1)OCO2`, the “hERG current change (%, negative = inhibition) at 1uM” value was 2.74%.

As for `O=Cc1c(N2CCSCC2)nc2ccccn2c1=O`, the “hERG current change (%, negative = inhibition) at 1uM” value was found to be 4.12%.

`CCc1ccc(N2CC(C(=O)OCC(=O)NC3CCS(=O)(=O)C3)CC2=O)cc1` (centres unmarked): the “hERG current change (%, negative = inhibition) at 1uM” value was 11.4%.

Turning to `N#CC1(c2ccccc2)CCC(=O)N1c1ccccc1` (centres unmarked), the “hERG current change (%, negative = inhibition) at 1uM” value stood at 14.9%.

`COc1cnc(SC)nc1Nc1ccc(C#N)cc1`: the “hERG current change (%, negative = inhibition) at 1uM” value was -9.86%.

In the case of `COc1ccc(C(=O)Nc2ccc(NC(=O)c3cnccn3)cn2)cc1`, the “hERG current change (%, negative = inhibition) at 1uM” value is reported as 7.26%.

Regarding `O=S(=O)(c1ccc(Cl)cc1)N1CCNCC1`, the “hERG current change (%, negative = inhibition) at 1uM” value came out at 10.9%.

`Cc1cccc(NC(=O)CSc2nnc(-c3ccc(S(=O)(=O)N4CCOCC4)cc3)n2C)c1`: the “hERG current change (%, negative = inhibition) at 1uM” value is -5.53%.

In the case of `Cn1cc([N+](=O)[O-])c(C(=O)Nc2ccc3c(C(F)(F)F)cc(=O)oc3c2)n1`, the “hERG current change (%, negative = inhibition) at 1uM” value amounted to 11.2%.

In the case of `CCCCCn1c(NCc2ccco2)nc2ccccc21`, the “hERG current change (%, negative = inhibition) at 1uM” value was -41.5%.

For the molecule `CCCS(=O)(=O)N1CCCC(C(=O)N2CCOCC2)C1` (centres unmarked), the “hERG current change (%, negative = inhibition) at 1uM” value is 4.33%.

As for `N#Cc1ccsc1NC(=O)C1CCCN1S(=O)(=O)c1cccs1` (centres unmarked), the “hERG current change (%, negative = inhibition) at 1uM” value was found to be 22.2%.

In the case of `N#Cc1ccc(/C=C/C(=O)c2cccnc2)cc1`, the “hERG current change (%, negative = inhibition) at 1uM” value is recorded as -26.5%.

In the case of `O=C(COC(=O)c1ccc(S(=O)(=O)N2CCCC2)cc1)Nc1ccc(F)cc1F`, the “hERG current change (%, negative = inhibition) at 1uM” value came out at 1.39%.

Turning to `Fc1ccc(/C=N/Nc2nc3ccccc3[nH]2)cc1F`, the “hERG current change (%, negative = inhibition) at 1uM” value is 2.37%.

Turning to `CCC(CC)C(=O)Nc1cccc(C(=O)NCCc2ccccc2)c1`, the “hERG current change (%, negative = inhibition) at 1uM” value is listed as 5.81%.

For the molecule `C(=N\n1cnnc1)/c1cccc(OCCOc2ccccc2)c1`, the “hERG current change (%, negative = inhibition) at 1uM” value was determined as 7.28%.

For the molecule `Cc1cc(N/N=C(/CCC(=O)[O-])C(=O)[O-])nc2ccccc12.[K+]`, the “hERG current change (%, negative = inhibition) at 1uM” value is listed as 26.3%.

Regarding `Cc1ccc([N+](=O)[O-])c(OCCn2cnc3ccccc32)c1`, the “hERG current change (%, negative = inhibition) at 1uM” value is given as 11.3%.

As for `O=C1NC[C@@H](Cc2cccc3ccccc23)N(CC2CCCCC2)C1=O`, the “hERG current change (%, negative = inhibition) at 1uM” value is 7.59%.

As to `CN(C)c1c([N+](=O)[O-])ncn1C`, the “hERG current change (%, negative = inhibition) at 1uM” value turned out to be 2.47%.

Consider `COc1cccc(C2NC(=O)NC(O)(C(F)(F)F)C2C(=O)c2cccnc2)c1OC` (centres unmarked), for which the “hERG current change (%, negative = inhibition) at 1uM” value stood at 4.51%.

Consider `CCOC(=O)c1sc(N)nc1C(C)C`, for which the “hERG current change (%, negative = inhibition) at 1uM” value is 6.5%.

Regarding `O=[N+]([O-])c1cc(/C=N/N/C(=N/c2ccccn2)c2ccccn2)ccc1O`, the “hERG current change (%, negative = inhibition) at 1uM” value turned out to be 11.3%.

Turning to `Cc1ccc2cc(CN(Cc3nnnn3Cc3ccco3)CC3CCCO3)c(=O)[nH]c2c1C` (centres unmarked), the “hERG current change (%, negative = inhibition) at 1uM” value amounted to 0.251%.

In the case of `Fc1ccc2nc(C3CCCCN3Cc3nc(CC4CC4)no3)[nH]c2c1` (centres unmarked), the “hERG current change (%, negative = inhibition) at 1uM” value came out at 14.7%.

In the case of `CCc1ccc(OCCCC(=O)Nc2ccc(S(=O)(=O)Nc3cc(C)nc(C)n3)cc2)cc1`, the “hERG current change (%, negative = inhibition) at 1uM” value is recorded as 14.5%.

Take `CCCCN(C(=O)Cn1nnc2ccccc21)C(C(=O)NCCOC)c1cccs1` (centres unmarked): the “hERG current change (%, negative = inhibition) at 1uM” value came out at 20.7%.

Take `Cc1nc2ccccc2n1C1CC(=O)N(Cc2ccccc2)C1=O` (centres unmarked): the “hERG current change (%, negative = inhibition) at 1uM” value amounted to 15.9%.

For `CCOC(=O)C1=C(C)NC(C)=C(C(=O)OCC)C1C(=O)O`, the “hERG current change (%, negative = inhibition) at 1uM” value is -4.2%.

In the case of `CNC(=S)N1CCc2sccc2C1C` (centres unmarked), the “hERG current change (%, negative = inhibition) at 1uM” value came out at 6.76%.

Consider `CCCCc1nc2cc(C(=O)NCCc3c(C)n[nH]c3C)ccc2o1`, for which the “hERG current change (%, negative = inhibition) at 1uM” value was 7.7%.

As to `Cc1ccc2c(c1)N(CC(=O)OC(CC(C)C)C(=O)NC1CCCC1)C(=O)CO2` (centres unmarked), the “hERG current change (%, negative = inhibition) at 1uM” value was -13.6%.

As for `Cc1ccc(C(=O)Cn2c(-c3ccccc3)noc2=O)cc1`, the “hERG current change (%, negative = inhibition) at 1uM” value is -1.49%.

For `Cc1cccc(-n2nnnc2SCC(=O)Nc2ccc(N3CCN(C)CC3)cc2)c1`, the “hERG current change (%, negative = inhibition) at 1uM” value is listed as 2.19%.

On to `CCOC(=O)c1c(NC(=O)c2ccc(Cl)s2)sc(C)c1C`, for which the “hERG current change (%, negative = inhibition) at 1uM” value turned out to be 11.2%.
